Laboratory results as given in the antibiotic and cytotoxicity screens of Wong et al. (2023).
Some of the results follow.

Tests used:
HSkMC = human skeletal muscle cells; assay: cytotoxicity call (relative viability < 0.9); details: 10 µM
HepG2 = assay: cytotoxicity call (relative viability < 0.9); details: 10 µM
S. aureus RN4220 = assay: growth inhibition call (relative growth <= 0.2); details: 50 µM

Compound	cytotoxicity call (HSkMC)	cytotoxicity call (HepG2)	growth inhibition call (S. aureus RN4220)
C[C@H]1CN([C@@H](C)CO)C(=O)c2cc(NC(=O)Nc3ccc(C(F)(F)F)cc3)ccc2O[C@@H]1CN(C)Cc1ccc(C(=O)O)cc1	inactive	inactive	inactive
CC(C)NC(=O)Nc1ccc2c(c1)C(=O)N([C@@H](C)CO)C[C@@H](C)[C@@H](CN(C)C(=O)Nc1ccc(C(F)(F)F)cc1)OCCCC[C@H](C)O2	inactive	inactive	inactive
C[C@@H]1CCCCO[C@H](CN(C)Cc2ccc(Cl)c(Cl)c2)[C@@H](C)CN([C@@H](C)CO)C(=O)c2cc(NC(=O)Nc3ccc(C(F)(F)F)cc3)ccc2O1	inactive	active	inactive
CCCN(C)C[C@H]1OCCCC[C@@H](C)Oc2ccc(NC(=O)CCC(F)(F)F)cc2C(=O)N([C@@H](C)CO)C[C@H]1C	inactive	inactive	inactive
COCCNC(=O)C[C@@H]1C[C@@H]2c3cc(NC(=O)CN(C)C)ccc3O[C@@H]2[C@H](CO)O1	inactive	inactive	inactive
C[C@@H]1CN([C@H](C)CO)C(=O)Cc2cc(NC(=O)Cc3ccccc3)ccc2O[C@@H]1CN(C)S(=O)(=O)c1cccs1	inactive	inactive	inactive
C[C@H]1CN([C@@H](C)CO)C(=O)Cc2cc(NC(=O)Nc3cccc4ccccc34)ccc2O[C@@H]1CN(C)Cc1ccncc1	inactive	inactive	inactive
COc1ccc(OC)c(S(=O)(=O)NCCO)c1	inactive	inactive	inactive
C[C@H](CO)N1C[C@H](C)[C@H](CN(C)Cc2ccc(-c3ccccc3)cc2)Oc2ccc(NS(=O)(=O)c3ccc(Cl)cc3)cc2C1=O	active	active	inactive
